# Test results taken from the supplement of paper PMC8728848.
# The list shows a part of the results.
# B1: SialidaseA (Arthrobacter ureafaciens) (protein)
# chain: MRSNSTSAPSLVRRAATGVLTCAVSIGLLAGLGLPAQAAPTPPNSPTLPPGSFSETNLAADRTAANFFYRIPALTYLGNDVVLAAWDGRPGSAADAPNPNSIVQRRSTDGGKTWGPVQVIAAGHVADASGPRYGYSDPSYIYDAEANKVFAFFVYSKDQGFGGSQFGNDDADRNVISSAVIESSDAGVTWSQPRLITSVTKPGTSKTNPAAGDVRSNFASSGEGIQLKYGPHKGRLIQQYAGDVRQADGSNKIQAYSVYSDDHGVTWHKGANVGDRMDENKTVELSDGRVLLNSRDNANRGYRKVAVSTDGGATYGPVSQDTELPDPANNGAIARMFPNAAQGSADAKKLIFTNANSKTGRENVSARVSCDDGETWPGVRTIRSGFSAYSTVTRLADGKFGVLYEGNYTDNMPFATFDDAWLNYVCAPLAVPAVNIAPSATQEVPVTVTNQEATTLSGATATVYTPSGWSATTVPVPDVAPGASVTVTVALTAPADASGPRSLNAAFTTADGRVSQFTFTATTPVAPQVGLTITGSAPARDVAANPYQAGDVLGYTLNVKSTANVAANSVPLTGTFDSGFLPPAAPNCRYNNLAAGASYNCTTAKHTITAADMERGYFVPEATFSITSTTTPSLTKTVQFTGAAVALRDGLISADISGARTDVGRDLATRPYAAGELVPYAFTVKNTSPFVEQVVPTAGNFSPFLPAGAGNCRYLSLPAGQSYECATPRHAVTAEEVEQGFFVPDTTWEVSAAGQSTRTYRINGGEVDLLVRDAALSATVVAEWKDADGDRFASAGDPVTFTYTVGNAGNVALTGLEAPDAGISLPFLAPGDTATATREHVLTAADVAGGSLAASAFEATARNGSKEVTATAEGQPLELKVQPAQPSKEPELTVQDLEDQTPPFDLGTAFKYRTGQKVSLAGLEYGQWYYVYLNKTGYRLGWMFPTTGDTVEFILPPEVRNGRDDVVVLDKDGRRVSFDRLQVTPKGEKI
# How the values were obtained:
# Experiment in all cases: glycan array binding signal (z-score within array); higher = stronger binding
# Conditions in all cases: glycan notation: IUPAC condensed, linker removed
# [1] = molecular target: Fuc(a1-2)Gal(b1-4)GlcNAc(b1-3)Gal(b1-4)GlcNAc(b1-3)Gal(b1-4)GlcNAc
# Procedure, shortened: (§1)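 The binding signal is a Z-score computed within each array. Data were drawn from 3228 arrays in the Consortium for Functional Glycomics database, restricted to those with a known protein sequence. Scores were averaged over arrays of the same protein sequence at different concentrations or buffers, and over linkers, and negative values can be taken as non-binding.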
# [2] = molecular target: Fuc(a1-2)Gal(b1-4)GlcNAc(b1-3)GalNAc
# Procedure, shortened: as §1
# [3] = molecular target: Fuc(a1-2)Gal(b1-4)GlcNAc(b1-3)[Fuc(a1-2)Gal(b1-4)GlcNAc(b1-6)]GalNAc
# Procedure, shortened: as §1
# [4] = molecular target: Fuc(a1-2)Gal(b1-4)GlcNAc(b1-3)[Fuc(a1-3)[Gal(b1-4)]GlcNAc(b1-6)]Gal(b1-4)Glc
# Procedure, shortened: as §1
# [5] = molecular target: Fuc(a1-2)Gal(b1-4)GlcNAc(b1-6)GalNAc
# Procedure, shortened: as §1
# [6] = molecular target: Fuc(a1-2)Gal(b1-4)GlcNAc6S
# Procedure, shortened: as §1
# [7] = molecular target: Fuc(a1-2)Gal(b1-4)[Fuc(a1-3)]GlcNAc
# Procedure, shortened: as §1
# [8] = molecular target: Fuc(a1-2)Gal(b1-4)[Fuc(a1-3)]GlcNAc(b1-2)Man(a1-3)[Fuc(a1-2)Gal(b1-4)[Fuc(a1-3)]GlcNAc(b1-2)Man(a1-6)]Man(b1-4)GlcNAc(b1-4)[Fuc(a1-6)]GlcNAc
# Procedure, shortened: as §1
# [9] = molecular target: Fuc(a1-2)Gal(b1-4)[Fuc(a1-3)]GlcNAc(b1-2)[Fuc(a1-2)Gal(b1-4)[Fuc(a1-3)]GlcNAc(b1-4)]Man(a1-3)[Fuc(a1-2)Gal(b1-4)[Fuc(a1-3)]GlcNAc(b1-2)Man(a1-6)]Man(b1-4)GlcNAc(b1-4)GlcNAc
# Procedure, shortened: as §1
# [10] = molecular target: Fuc(a1-2)Gal(b1-4)[Fuc(a1-3)]GlcNAc(b1-3)Gal(b1-4)[Fuc(a1-3)]GlcNAc
# Procedure, shortened: as §1
# [11] = molecular target: Fuc(a1-2)Gal(b1-4)[Fuc(a1-3)]GlcNAc(b1-3)Gal(b1-4)[Fuc(a1-3)]GlcNAc(b1-3)Gal(b1-4)[Fuc(a1-3)]GlcNAc
# Procedure, shortened: as §1
# [12] = molecular target: Fuc(a1-2)Gal(b1-4)[Fuc(a1-3)]GlcNAc(b1-3)GalNAc
# Procedure, shortened: as §1
# [13] = molecular target: Fuc(a1-2)Gal(b1-4)[Fuc(a1-3)]GlcNAc(b1-3)[Neu5Ac(a2-6)Gal(b1-4)GlcNAc(b1-6)]Gal(b1-4)Glc
# Procedure, shortened: as §1
# [14] = molecular target: Fuc(a1-2)Gal3S(b1-4)GlcNAc
# Procedure, shortened: as §1
# [15] = molecular target: Fuc(a1-2)Gal6S(b1-3)GlcNAc
# Procedure, shortened: as §1
# [16] = molecular target: Fuc(a1-2)Gal6S(b1-3)GlcNAc6S
# Procedure, shortened: as §1
# Fuc(a1-2)Gal6S(b1-4)Glc = molecular target: Fuc(a1-2)Gal6S(b1-4)Glc
# Procedure, shortened: as §1
# [17] = molecular target: Fuc(a1-2)Gal6S(b1-4)Glc6S
# Procedure, shortened: as §1
# Fuc(a1-2)[Gal(a1-3)]Gal = molecular target: Fuc(a1-2)[Gal(a1-3)]Gal
# Procedure, shortened: as §1
# [18] = molecular target: Fuc(a1-2)[Gal(a1-3)]Gal(b1-3)GalNAc
# Procedure, shortened: as §1
# [19] = molecular target: Fuc(a1-2)[Gal(a1-3)]Gal(b1-3)GalNAc(b1-3)Gal(a1-4)Gal(b1-4)Glc
# Procedure, shortened: as §1
# [20] = molecular target: Fuc(a1-2)[Gal(a1-3)]Gal(b1-3)GlcNAc
# Procedure, shortened: as §1
# [21] = molecular target: Fuc(a1-2)[Gal(a1-3)]Gal(b1-3)GlcNAc(b1-2)Man(a1-3)[Fuc(a1-2)[Gal(a1-3)]Gal(b1-3)GlcNAc(b1-2)Man(a1-6)]Man(b1-4)GlcNAc(b1-4)GlcNAc
# Procedure, shortened: as §1
# [22] = molecular target: Fuc(a1-2)[Gal(a1-3)]Gal(b1-3)GlcNAc(b1-2)Man(a1-3)[Fuc(a1-2)[Gal(a1-3)]Gal(b1-3)GlcNAc(b1-2)Man(a1-6)]Man(b1-4)GlcNAc(b1-4)[Fuc(a1-6)]GlcNAc
# Procedure, shortened: as §1
# [23] = molecular target: Fuc(a1-2)[Gal(a1-3)]Gal(b1-3)GlcNAc(b1-3)GalNAc
# Procedure, shortened: as §1
# [24] = molecular target: Fuc(a1-2)[Gal(a1-3)]Gal(b1-3)GlcNAc(b1-6)GalNAc
# Procedure, shortened: as §1
# [25] = molecular target: Fuc(a1-2)[Gal(a1-3)]Gal(b1-4)Glc
# Procedure, shortened: as §1
# [26] = molecular target: Fuc(a1-2)[Gal(a1-3)]Gal(b1-4)GlcNAc
# Procedure, shortened: as §1
# [27] = molecular target: Fuc(a1-2)[Gal(a1-3)]Gal(b1-4)GlcNAc(b1-2)Man
# Procedure, shortened: as §1
# [28] = molecular target: Fuc(a1-2)[Gal(a1-3)]Gal(b1-4)GlcNAc(b1-2)Man(a1-3)[Fuc(a1-2)[Gal(a1-3)]Gal(b1-4)GlcNAc(b1-2)Man(a1-6)]Man(b1-4)GlcNAc(b1-4)GlcNAc
# Procedure, shortened: as §1
binder,measurement,setting,value
B1,glycan array binding signal (z-score),[1],0.023
same,glycan array binding signal (z-score),[2],-0.258
same,glycan array binding signal (z-score),[3],-0.492
same,glycan array binding signal (z-score),[4],-0.604
same,glycan array binding signal (z-score),[5],-0.456
same,glycan array binding signal (z-score),[6],-0.419
same,glycan array binding signal (z-score),[7],-0.312
same,glycan array binding signal (z-score),[8],0.073
same,glycan array binding signal (z-score),[9],0.318
same,glycan array binding signal (z-score),[10],0.217
same,glycan array binding signal (z-score),[11],-0.03
same,glycan array binding signal (z-score),[12],-0.238
same,glycan array binding signal (z-score),[13],-0.44
same,glycan array binding signal (z-score),[14],-0.739
same,glycan array binding signal (z-score),[15],-0.742
same,glycan array binding signal (z-score),[16],-0.514
same,glycan array binding signal (z-score),Fuc(a1-2)Gal6S(b1-4)Glc,-0.661
same,glycan array binding signal (z-score),[17],-0.896
same,glycan array binding signal (z-score),Fuc(a1-2)[Gal(a1-3)]Gal,-0.486
same,glycan array binding signal (z-score),[18],0.077
same,glycan array binding signal (z-score),[19],-0.711
same,glycan array binding signal (z-score),[20],-0.478
same,glycan array binding signal (z-score),[21],0.319
same,glycan array binding signal (z-score),[22],-0.267
same,glycan array binding signal (z-score),[23],-0.765
same,glycan array binding signal (z-score),[24],-0.704
same,glycan array binding signal (z-score),[25],-0.382
same,glycan array binding signal (z-score),[26],-0.699
same,glycan array binding signal (z-score),[27],-0.252
same,glycan array binding signal (z-score),[28],-0.031
